Experimental data published in patent US20260193317A1, “COMBINATION THERAPY WITH ACTRIIB RECEPTOR VARIANTS AND GLP-1 AGONISTS” (35PHARMA Inc., priority 2023, published 2026).

T1: recombinant human activin A (human, UniProt P08476 311-426)
T1 sequence (looked up): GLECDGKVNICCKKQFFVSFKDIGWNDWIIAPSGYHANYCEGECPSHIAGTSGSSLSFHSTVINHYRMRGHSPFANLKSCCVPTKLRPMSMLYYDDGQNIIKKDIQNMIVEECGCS

T2: BMP-9 (UniProt Q9UK05 320-429)
T2 sequence (looked up): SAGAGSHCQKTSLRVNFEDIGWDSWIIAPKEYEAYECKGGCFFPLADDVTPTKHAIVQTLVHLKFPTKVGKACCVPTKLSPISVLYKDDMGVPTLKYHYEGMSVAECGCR

T3: BMP-10 (UniProt O95393 317-424)
T3 sequence (looked up): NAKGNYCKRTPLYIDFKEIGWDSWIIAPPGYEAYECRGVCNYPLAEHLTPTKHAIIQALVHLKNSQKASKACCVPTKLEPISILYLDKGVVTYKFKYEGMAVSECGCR

T4: activin B (UniProt P09529 293-407)
T4 sequence (looked up): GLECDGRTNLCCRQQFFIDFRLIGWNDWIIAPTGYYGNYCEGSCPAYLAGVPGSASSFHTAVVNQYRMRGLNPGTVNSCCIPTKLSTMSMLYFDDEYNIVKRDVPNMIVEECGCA

T5: BMP-10 (Homo sapiens, UniProt O95393)
T5 sequence (O95393 317-424): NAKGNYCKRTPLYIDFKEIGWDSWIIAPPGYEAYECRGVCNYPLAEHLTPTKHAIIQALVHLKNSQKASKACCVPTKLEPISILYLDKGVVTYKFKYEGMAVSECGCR

T6: activin A (Homo sapiens, UniProt P08476)
T6 sequence (P08476 311-426): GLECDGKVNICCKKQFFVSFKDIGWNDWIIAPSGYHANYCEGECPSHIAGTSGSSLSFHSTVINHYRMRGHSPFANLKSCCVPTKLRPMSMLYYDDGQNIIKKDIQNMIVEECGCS

T7: activin B (Homo sapiens, UniProt P09529)
T7 sequence (P09529 293-407): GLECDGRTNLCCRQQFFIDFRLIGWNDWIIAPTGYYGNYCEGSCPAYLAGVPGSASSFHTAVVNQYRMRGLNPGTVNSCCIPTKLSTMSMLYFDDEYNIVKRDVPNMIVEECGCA

T8: BMP-9 (Homo sapiens, UniProt Q9UK05)
T8 sequence (Q9UK05 320-429): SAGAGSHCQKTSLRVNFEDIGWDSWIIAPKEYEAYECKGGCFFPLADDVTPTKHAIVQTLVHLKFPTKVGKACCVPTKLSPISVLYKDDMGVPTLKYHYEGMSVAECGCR


Key:
GDF-8 [1] = target: GDF-8 (Homo sapiens, UniProt O14793); test: TGFβ-reporter HEK293 cell-based assay: GDF-8 neutralization; settings: TGFβ-reporter HEK293 cells, ligand 0.3 nM
Description: (§1) Potency testing by neutralization on cell-based assays. Characterization of the activin A, activin B, GDF-8, and GDF-11 inhibition potency (IC50) of the fusion proteins was performed using a cell-based reporter assay. TGFβ-reporter HEK293 cells were obtained from InvivoGen (San Diego, CA, cat. no. hkb-tgfb) and were maintained following the manufacturer's instructions. Briefly, cells were grown in high-glucose DMEM, containing 10% heat-inactivated FBS, 30 μg/mL blasticidin, 250 μg/mL hygromycin B, and 100 μg/mL zeocin (hereafter, “growth medium”). Once the cells reached 70-80% confluence, they were detached in growth medium by gently tapping on the flask. For all assays, cells were seeded in 96-well plates at a density of 20,000 cells per well in growth medium. Cells were left to attach for 10 minutes at room temperature (RT) prior to being transferred to a 37° C. incubator (5% CO2) overnight. The next day, treatments were prepared by combining the appropriate concentration of agent with activin A, activin B, GDF-8, or GDF-11 for 30 min at RT (shaking at 150 rpm). Treatments were conducted in high-glucose DMEM (serum-free and with no selection agents), and the final concentration of cytokine (ligand) was 0.3 nM. Growth medium was removed from the culture plates, and cells were treated with the appropriate mixes of fusion protein and cytokine. Treatment duration was for 18-22 h at 37° C. (5% CO2). All treatments were performed in technical duplicates and at least one or two independent experiments were conducted for each cytokine. At the end of the treatment period, supernatants were transferred to a new plate, and centrifuged at 300 RPM for 3 min. Forty microlitres of supernatant from each condition was transferred to a new plate, into which 180 μL of Quanti-Blue reagent (InvivoGen, cat. no. rep-qbs) was added. Quanti-Blue reagent was prepared following the manufacturer's instructions. Samples were incubated for 45 min at 37° C. At the end of the incubation, absorbance was read at 650 nm. […]

GDF-11 [2] = target: GDF-11 (Homo sapiens, UniProt O95390); test: TGFβ-reporter HEK293 cell-based assay: GDF-11 neutralization; settings: TGFβ-reporter HEK293 cells, ligand 0.3 nM
Sequence of GDF-11 (O95390 299-407): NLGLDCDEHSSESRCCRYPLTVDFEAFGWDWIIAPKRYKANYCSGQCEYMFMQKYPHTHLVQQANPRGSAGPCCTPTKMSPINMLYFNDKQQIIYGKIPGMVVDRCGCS
Description: (§2) Potency testing by neutralization on cell-based assays. Characterization of the activin A, activin B, GDF-8, and GDF-11 inhibition potency (IC50) of the fusion proteins was performed using a cell-based reporter assay. TGFβ-reporter HEK293 cells were obtained from InvivoGen (San Diego, CA, cat. no. hkb-tgfb) and were maintained following the manufacturer's instructions. Briefly, cells were grown in high-glucose DMEM, containing 10% heat-inactivated FBS, 30 μg/mL blasticidin, 250 μg/mL hygromycin B, and 100 μg/mL zeocin (hereafter, “growth medium”). Once the cells reached 70-80% confluence, they were detached in growth medium by gently tapping on the flask. For all assays, cells were seeded in 96-well plates at a density of 20,000 cells per well in growth medium. Cells were left to attach for 10 minutes at room temperature (RT) prior to being transferred to a 37° C. incubator (5% CO2) overnight. The next day, treatments were prepared by combining the appropriate concentration of agent with activin A, activin B, GDF-8, or GDF-11 for 30 min at RT (shaking at 150 rpm). Treatments were conducted in high-glucose DMEM (serum-free and with no selection agents), and the final concentration of cytokine (ligand) was 0.3 nM. Growth medium was removed from the culture plates, and cells were treated with the appropriate mixes of fusion protein and cytokine. Treatment duration was for 18-22 h at 37° C. (5% CO2). All treatments were performed in technical duplicates and at least one or two independent experiments were conducted for each cytokine. At the end of the treatment period, supernatants were transferred to a new plate, and centrifuged at 300 RPM for 3 min. Forty microlitres of supernatant from each condition was transferred to a new plate, into which 180 μL of Quanti-Blue reagent (InvivoGen, cat. no. rep-qbs) was added. Quanti-Blue reagent was prepared following the manufacturer's instructions. Samples were incubated for 45 min at 37° C. At the end of the incubation, absorbance was read at 650 nm. The data were plotted in GraphPad Prism, which was used to calculate IC50 values as a non-linear regression.

[3] = target: T1, recombinant human activin A; test: cell-based or functional assay
BMP-9 [4] = target: T2, BMP-9; test: cell-based or functional assay
GDF-11 [5] = target: GDF-11 (UniProt O95390 299-407); test: cell-based or functional assay
BMP-10 [6] = target: T3, BMP-10; test: cell-based or functional assay
GDF-8 [7] = target: GDF-8 (UniProt O14793 267-375); test: cell-based or functional assay
activin B [8] = target: T4, activin B; test: cell-based or functional assay
[9] = SEC-HPLC monomer and HMW content of purified fusion proteins; format: physicochemical; settings: after Protein A purification
Description: Given that protein aggregation can be indicative of reduced conformational stability and decreased activity, Size-Exclusion Chromatography-High Performance Liquid Chromatography (SEC-HPLC) was used to determine the purity of each ActRIIB-ECD construct. This method measured the percentage of intact monomeric species as well as the presence of aggregates and/or degradation products.
All proteins expressed efficiently in CHO and/or 293 cells and purification efficiency of each using Protein A affinity chromatography was similar.

BMP-10 [10] = target: T5, BMP-10; test: BMP-reporter HepG2 cell-based assay: BMP-10 neutralization; settings: BMP-reporter HepG2 cells, BMP-10 40 ng/mL
Description: (§3) Characterization of the BMP-9 and BMP-10 inhibition potency (IC50) of the fusion proteins was performed using a second cell-based reporter assay. Human hepatic HepG2 cells were transfected with a SEAP-encoding plasmid, in which SEAP expression is under the control of the murine Id1 promoter. A stable pool was generated from this transfection. Cells were grown in EMEM, containing 10% heat-inactivated FBS and 200 μg/mL zeocin (hereafter, “HepG2 growth medium”). […] For all assays, cells were seeded in 96-well plates at a confluence of 100,000 cells per well in HepG2 growth medium. Cells were left to attach for 10 minutes at RT prior to being transferred to a 37° C. incubator (5% CO2) overnight. The next day, treatments were prepared in EMEM (2.5% heat-inactivated FBS and with no selection agents) by combining the appropriate concentration of agent with BMP-9 or BMP-10 for 30 min at RT (shaking at 150 rpm). Treatments were conducted in EMEM (2.5% heat-inactivated FBS and with no selection agents), and the final concentration of BMP-9 and BMP-10 was 2 ng/mL and 40 ng/mL, respectively. HepG2 growth medium was removed from the culture plates, and cells were treated with the appropriate mixes of fusion protein and cytokine. Treatment duration was for 20-24 h at 37° C. (5% CO2). All treatments were performed in technical duplicates and at least one or two independent experiments were conducted for each cytokine. At the end of the treatment period, supernatants were transferred to a new plate, and centrifuged at 300 RPM for 3 min. Forty microlitres of supernatant from each condition was transferred to a new plate, onto which 180 μL of Quanti-Blue reagent was added. Quanti-Blue reagent was prepared following the manufacturer's instructions. Samples were incubated for 5-6 h with Quanti-Blue reagent at 37° C. At the end of the incubation, absorbance was read at 650 nm. The data were plotted in GraphPad Prism, which was used to calculate IC50 values as a non-linear regression.

activin A = target: T6, activin A; test: TGFβ-reporter HEK293 cell-based assay: activin A neutralization; settings: TGFβ-reporter HEK293 cells, ligand 0.3 nM
Description: as §2

activin B [11] = target: T7, activin B; test: TGFβ-reporter HEK293 cell-based assay: activin B neutralization; settings: TGFβ-reporter HEK293 cells, ligand 0.3 nM
Description: as §1

TGFβ superfamily ligands = test: Neutralization profile across TGFβ superfamily ligands (HEK293 and HepG2 reporter assays, summary); format: cell-based, human; settings: relative to P75
Description: as §2
Characterization of the BMP-9 and BMP-10 inhibition potency (IC50) of the fusion proteins was performed using a second cell-based reporter assay. Human hepatic HepG2 cells were transfected with a SEAP-encoding plasmid, in which SEAP expression is under the control of the murine Id1 promoter. A stable pool was generated from this transfection. Cells were grown in EMEM, containing 10% heat-inactivated FBS and 200 μg/mL zeocin (hereafter, “HepG2 growth medium”). […] For all assays, cells were seeded in 96-well plates at a confluence of 100,000 cells per well in HepG2 growth medium. Cells were left to attach for 10 minutes at RT prior to being transferred to a 37° C. incubator (5% CO2) overnight. The next day, treatments were prepared in EMEM (2.5% heat-inactivated FBS and with no selection agents) by combining the appropriate concentration of agent with BMP-9 or BMP-10 for 30 min at RT (shaking at 150 rpm). Treatments were conducted in EMEM (2.5% heat-inactivated FBS and with no selection agents), and the final concentration of BMP-9 and BMP-10 was 2 ng/mL and 40 ng/mL, respectively. HepG2 growth medium was removed from the culture plates, and cells were treated with the appropriate mixes of fusion protein and cytokine. Treatment duration was for 20-24 h at 37° C. (5% CO2). All treatments were performed in technical duplicates and at least one or two independent experiments were conducted for each cytokine. At the end of the treatment period, supernatants were transferred to a new plate, and centrifuged at 300 RPM for 3 min. Forty microlitres of supernatant from each condition was transferred to a new plate, onto which 180 μL of Quanti-Blue reagent was added. Quanti-Blue reagent was prepared following the manufacturer's instructions. Samples were incubated for 5-6 h with Quanti-Blue reagent at 37° C. […]

BMP-9 [12] = target: T8, BMP-9; test: BMP-reporter HepG2 cell-based assay: BMP-9 neutralization
Description: as §3

IC50 (GDF-8 [1]) [nM] | IC50 (GDF-11 [2]) [nM] | Activin A IC50; TGFβ-reporter HEK293 cells [3] [nM] | BMP-9 IC50; BMP-reporter HepG2 cells (BMP-9 [4]) [nM] | GDF-11 IC50; TGFβ-reporter HEK293 cells (GDF-11 [5]) [nM] | BMP-10 IC50; BMP-reporter HepG2 cells (BMP-10 [6]) [nM] | GDF-8 IC50; TGFβ-reporter HEK293 cells (GDF-8 [7]) [nM] | Activin B IC50; TGFβ-reporter HEK293 cells (activin B [8]) [nM] | IC50 (BMP-10 [10]) [nM] | IC50 (activin A) [nM] | IC50 (activin B [11]) [nM] | IC50 (BMP-9 [12]; BMP-reporter HepG2 cells, BMP-9 2 ng/mL) [nM] | improved potency on BMP-9 (BMP-9 [12]; relative to P75) | Molecule | high molecular weight (HMW) content (SEC-HPLC) [9] [%] | monomer content (SEC-HPLC) [9] [%] | reduced neutralization of activin A, activin B, GDF-8, GDF-11, and BMP-10 (TGFβ superfamily ligands)
0.48 | 0.39 | – | – | – | – | – | – | – | – | – | – | – | P1407: hActRIIB L14D, L33W, 19 aa linker, IgG1-DL Fc; SEQ ID 246 (protein) ETRECIYYNANWEDERTNQSGLERCEGEQDKRWHCYASWRNSSGTIELVKKGCWLDDFNCYDRQECVATEENPQVYFCCCEGNFCNERFTHLPEAGGPEVTYEPPPTGGGGSGGGGSGGGGSGG[human IgG1 Fc and a few adjoining residues not spelt out] | – | – | –
– | – | 1.6 | 2.1 | 1.5 | 2.9 | 1.4 | 2.4 | – | – | – | – | – | P753 (Fc fusion) ETRECIYYNANWELERTNQSGLERCEGEQDKRLHCYASWRNSSGTIELVKKGCWLDDFNCYDRQECVAHEENPQVYFCCCEGNFCNERFTHLPEAGGPEVTYEPPPTGGGGSGGGGSGG[human IgG1 Fc and a few adjoining residues not spelt out] | – | – | –
2 | 2.1 | – | – | – | – | – | – | 4 | 3.5 | 6 | 1.1 | ~ 2 fold | P739: hActRIIB G27E, 14 aa linker, IgG1-DL Fc; SEQ ID 174 (protein) ETRECIYYNANWELERTNQSGLERCEEEQDKRLHCYASWRNSSGTIELVKKGCWLDDFNCYDRQECVATEENPQVYFCCCEGNFCNERFTHLPEAGGPEVTYEPPPTGGGGSGGGGSGG[human IgG1 Fc and a few adjoining residues not spelt out] | 14 | 86 | 2-3 fold
